Source: the BET-seq Pho4 binding data (Le et al. 2018)
This is one part of the list. These are noisy estimates, calculated here from bound and input reads.

Each sequence was assayed against T1, Pho4 (S. cerevisiae) (UniProt P07270) (assay: relative binding free energy (BET-seq); higher = weaker binding). Settings: reference: library average.
T1 sequence: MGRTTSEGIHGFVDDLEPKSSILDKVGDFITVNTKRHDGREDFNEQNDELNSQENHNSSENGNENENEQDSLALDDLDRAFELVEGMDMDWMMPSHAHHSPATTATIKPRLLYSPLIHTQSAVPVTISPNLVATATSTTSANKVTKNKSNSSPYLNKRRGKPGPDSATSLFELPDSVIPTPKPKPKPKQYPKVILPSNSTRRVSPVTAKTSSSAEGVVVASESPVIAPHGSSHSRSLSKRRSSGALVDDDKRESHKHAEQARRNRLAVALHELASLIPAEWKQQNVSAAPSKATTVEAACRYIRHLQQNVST

Sequence | relative binding free energy
GGTTGCACGTGCTTGA | -0.03 kcal/mol
ATACACACGTGTTTGG | -0.09 kcal/mol
GCCGTCACGTGTTAGT | 0.36 kcal/mol
GTTGTCACGTGACATT | 0.28 kcal/mol
AGATACACGTGGGATT | -0.07 kcal/mol
AATGTCACGTGAGTGC | 0.24 kcal/mol
GACTGCACGTGTTAGT | 0.06 kcal/mol
TAGCGCACGTGGATTT | -0.06 kcal/mol
GTGTGCACGTGTATAA | 0.05 kcal/mol
GAGGTCACGTGGAGGA | 0.18 kcal/mol
GGTCGCACGTGGGGAC | 0.06 kcal/mol
CAGTGCACGTGAGGTA | -0.01 kcal/mol
GATTGCACGTGAGCGT | 0.18 kcal/mol
GGCAGCACGTGTTTTT | 0.16 kcal/mol
GATATCACGTGCGGTT | 0.21 kcal/mol
AATGACACGTGGGAGT | -0.14 kcal/mol
AGTGGCACGTGTGATT | 0.07 kcal/mol
GCTAGCACGTGGAGTG | -0.06 kcal/mol
TGCAGCACGTGTGTAA | 0.02 kcal/mol
AGTATCACGTGGGTCG | 0.05 kcal/mol
TATTTCACGTGGTTAC | 0.29 kcal/mol
TGTTGCACGTGCATGT | -0.1 kcal/mol
TTATGCACGTGATATT | 0.05 kcal/mol
TGTGTCACGTGGTTAG | 0.06 kcal/mol
GTCAACACGTGTTATT | -0.01 kcal/mol

Sequence | relative binding free energy
GGTGACACGTGGACTT | 0.11 kcal/mol
TTATGCACGTGGGAAC | -0.04 kcal/mol
GGTCTCACGTGGGCTG | 0.12 kcal/mol
GGTGGCACGTGAGTTA | 0.2 kcal/mol
TGCATCACGTGATTGA | 0.24 kcal/mol
TGTCTCACGTGTAGTG | 0.25 kcal/mol
ATGATCACGTGTCGGA | 0.25 kcal/mol
TATAGCACGTGGGATG | -0.22 kcal/mol
ACTATCACGTGAAGTG | 0.35 kcal/mol
TGGTGCACGTGGGCAG | -0.21 kcal/mol
ACGTGCACGTGGGGCA | -0.34 kcal/mol
TGGATCACGTGACGGG | 0.26 kcal/mol
TAATTCACGTGTGTCT | 0.25 kcal/mol
GGTGACACGTGTATGT | 0.15 kcal/mol
TGCTACACGTGGTAGT | 0.01 kcal/mol
TGGATCACGTGGGGTT | 0.09 kcal/mol
AGTCTCACGTGTAAGT | 0.11 kcal/mol
AGTCGCACGTGTTGTA | -0.1 kcal/mol
TAAGACACGTGATGTT | 0.27 kcal/mol
GTGCGCACGTGCGGTG | -0.07 kcal/mol
CGCAGCACGTGTTGGT | -0.15 kcal/mol
GTGTGCACGTGATAAG | 0.01 kcal/mol
CTCGTCACGTGGGTGA | 0.04 kcal/mol
GATATCACGTGTGTTG | 0.15 kcal/mol
CACTTCACGTGTGGGG | 0.06 kcal/mol

Sequence | relative binding free energy
TTTGTCACGTGTCTGC | 0.05 kcal/mol
GGTTCCACGTGAGGTT | 0.27 kcal/mol
TGGCCCACGTGAAGGT | 0.26 kcal/mol
GTAAGCACGTGGAAGT | 0 kcal/mol
ATTGGCACGTGGCGTC | -0.23 kcal/mol
AGCGTCACGTGGCGGG | -0.03 kcal/mol
TATCGCACGTGTAGGG | -0.12 kcal/mol
TTACACACGTGTAGGT | -0.07 kcal/mol
CGAAGCACGTGTAGGG | -0.03 kcal/mol
TACATCACGTGGTCGT | 0.16 kcal/mol
ACGGGCACGTGCGGGC | -0.18 kcal/mol
TGGGTCACGTGGGAAC | 0.16 kcal/mol
TGCCACACGTGGGAGG | -0.09 kcal/mol
TGGGCCACGTGTCTTG | -0.12 kcal/mol
AAATGCACGTGATGTA | 0 kcal/mol
TTGGGCACGTGGCATC | -0.15 kcal/mol
AGTCACACGTGCAGGG | 0.12 kcal/mol
TTTGGCACGTGGGATG | -0.11 kcal/mol
GTCGTCACGTGTGTGC | 0.04 kcal/mol
GTAGTCACGTGGGGCC | -0.11 kcal/mol
TTTGCCACGTGTGGTC | -0.17 kcal/mol
ATCTGCACGTGTACGG | 0.1 kcal/mol
GTTATCACGTGCGTAT | 0.14 kcal/mol
TGGGACACGTGAGTAT | 0.22 kcal/mol
TGAAACACGTGTTCGT | -0.01 kcal/mol

Sequence | relative binding free energy
CAGTTCACGTGTGTGA | 0.25 kcal/mol
TGAATCACGTGGTAGA | 0.05 kcal/mol
CTGTTCACGTGGGTAA | 0.21 kcal/mol
AGAGTCACGTGCGAGG | 0.06 kcal/mol
GGCAGCACGTGGTTAG | -0.01 kcal/mol
GTTGACACGTGAGGTA | 0.26 kcal/mol
GTAAACACGTGGCGTT | -0.09 kcal/mol
TGTGTCACGTGTAGGA | 0.11 kcal/mol
ATGGGCACGTGCGCGC | -0.1 kcal/mol
TTGCGCACGTGTGGCG | -0.14 kcal/mol
AGAGTCACGTGAGGTG | 0.28 kcal/mol
TAATGCACGTGTGAGG | -0.04 kcal/mol
ATAGACACGTGAGTAG | 0.17 kcal/mol
ATTGCCACGTGTATTT | -0.02 kcal/mol
GATTACACGTGGTGTG | 0.07 kcal/mol
GGGCGCACGTGAGCGT | 0.1 kcal/mol
TGGCTCACGTGTTTTT | 0.12 kcal/mol
TAGGACACGTGAAGGA | 0.31 kcal/mol
AGAAACACGTGTTGTA | 0.03 kcal/mol
CTAAGCACGTGTGAGT | -0.03 kcal/mol
TCTAACACGTGTGTGG | 0.02 kcal/mol
GGTATCACGTGAGTAA | 0.23 kcal/mol
TTGTGCACGTGACAGG | 0.06 kcal/mol
TATTACACGTGGTGAG | 0.01 kcal/mol
GGGGGCACGTGGAGTT | 0 kcal/mol

Sequence | relative binding free energy
CTGTTCACGTGAATGG | 0.36 kcal/mol
CGCTTCACGTGGTTTT | 0.28 kcal/mol
TTAGACACGTGTGAAA | 0.21 kcal/mol
TGTTGCACGTGTCGAT | 0 kcal/mol
TTGTACACGTGCGTTG | 0.06 kcal/mol
GTGTCCACGTGTGGAT | -0.07 kcal/mol
TTAGGCACGTGCGGCT | -0.16 kcal/mol
AAAGGCACGTGGTAGC | -0.2 kcal/mol
GAAGGCACGTGTAGGC | 0.01 kcal/mol
TTTTTCACGTGGAACT | 0.4 kcal/mol
GTACACACGTGGGGTG | -0.09 kcal/mol
TGTGTCACGTGAACAT | 0.19 kcal/mol
GGTATCACGTGGGTCA | 0.09 kcal/mol
GTGGGCACGTGATTGA | -0.01 kcal/mol
GTAGGCACGTGTAGCG | 0.05 kcal/mol
TTTTGCACGTGCTATG | 0.03 kcal/mol
ATCGGCACGTGGGGGA | -0.21 kcal/mol
GGATTCACGTGCTGGC | 0.33 kcal/mol
TATGTCACGTGGGGGA | 0.04 kcal/mol
GTGGACACGTGAGCTG | 0.34 kcal/mol
GGGTACACGTGCGGTT | 0.06 kcal/mol
ATTCACACGTGAGTGT | 0.04 kcal/mol
TTAGACACGTGATGTG | -0.02 kcal/mol
CAGTGCACGTGTTCTG | 0.06 kcal/mol
GGTGTCACGTGGGTGA | -0.01 kcal/mol

Sequence | relative binding free energy
AAGCACACGTGTGGTT | 0.1 kcal/mol
CGTTACACGTGAGGGG | 0.29 kcal/mol
TATGTCACGTGGTCTG | 0.01 kcal/mol
GGGTGCACGTGCGAGC | -0.03 kcal/mol
AGGTACACGTGGGGAG | 0.02 kcal/mol
AATTGCACGTGAAGGA | 0.15 kcal/mol
CTGATCACGTGGTTTG | 0.04 kcal/mol
TCTATCACGTGGTAAT | 0.1 kcal/mol
TATGGCACGTGGATCT | -0.18 kcal/mol
CGCAACACGTGGGTTG | -0.09 kcal/mol
GTTAACACGTGCTGGG | -0.05 kcal/mol
TTAGTCACGTGAAGCT | 0.28 kcal/mol
AGGTGCACGTGACTTT | 0.14 kcal/mol
TTCGGCACGTGTTTTC | -0.03 kcal/mol
ACAGACACGTGGGGTT | -0.1 kcal/mol
TACGGCACGTGTATGT | -0.03 kcal/mol
GAAGTCACGTGTTTCT | 0.27 kcal/mol
GTATACACGTGGGGCT | -0.03 kcal/mol
TGGTACACGTGATAGG | 0.18 kcal/mol
CGGAGCACGTGTTTTT | -0.07 kcal/mol
TGGTACACGTGATGGG | 0.2 kcal/mol
